# From ChEMBL document CHEMBL5606460, “ASAP - DENV-2 NS2B-NS3 protease fluorescence single point” (2024)
# Out of some 2,000 compounds screened, about 110 (5.5%) showed an effect of 50% or more. The list shows a part of the results.
# Molecular target: Genome polyprotein (dengue virus type 2) (UniProt P29990)
# [1] = Thailand/16681/1984, Concentration 25.0 uM, Number of replicates 1.0
smiles,measurement,setting,value
O=Cc1ccc(N2CCC(C(=O)N3CCN(c4ccc(C(F)(F)F)cc4)CC3)CC2)cc1,inhibition,[1],3.74%
Cc1cc(CO)c2cccc(C[C@H](NC(=O)c3cc(C(=O)O)[nH]n3)C(=O)O)c2n1,inhibition,"Thailand/16681/1984, Concentration 49.95 uM, Number of replicates 2.0, Standard deviation 0.0783695359950968 %",9.26%
same,inhibition,"Thailand/16681/1984, Concentration 99.9 uM, Number of replicates 2.0, Standard deviation 0.8735551383744987 %",19.8%
CCCC[C@@H](CC)CN(C[C@@H](CC)CCCC)C(=O)C1CCN(c2ccc(C=O)cc2)CC1,inhibition,[1],13.4%
O=C(NCc1cnn2c1CNCC2)c1cccc2ncccc12,inhibition,"Thailand/16681/1984, Concentration 49.5 uM, Number of replicates 2.0, Standard deviation 0.1734798002187207 %",-1.67%
same,inhibition,"Thailand/16681/1984, Concentration 99.01 uM, Number of replicates 2.0, Standard deviation 0.036688958069278785 %",-0.626%
same,inhibition,"Thailand/16681/1984, Concentration 198.0 uM, Number of replicates 2.0, Standard deviation 0.8098743032868769 %",-0.526%
O=C(c1nc2ccccc2[nH]1)N1CCC[C@H](n2cnc3ccccc32)C1,inhibition,"Thailand/16681/1984, Concentration 49.5 uM, Number of replicates 2.0, Standard deviation 2.6115977735474685 %",0.84%
same,inhibition,"Thailand/16681/1984, Concentration 99.01 uM, Number of replicates 2.0, Standard deviation 0.6888029106404484 %",2.01%
same,inhibition,"Thailand/16681/1984, Concentration 198.0 uM, Number of replicates 2.0, Standard deviation 0.432466283759373 %",1.96%
CC(C)Nc1nc2ccc(C(=O)Nc3nnnn3-c3ccccn3)cc2[nH]1,inhibition,"Thailand/16681/1984, Concentration 50.0 uM, Number of replicates 2.0, Standard deviation 0.4638992347914037 %",10.1%
same,inhibition,"Thailand/16681/1984, Concentration 100.0 uM, Number of replicates 2.0, Standard deviation 0.37502198370035894 %",23.2%
same,inhibition,"Thailand/16681/1984, Concentration 200.0 uM, Number of replicates 2.0, Standard deviation 0.6432809425008019 %",46.4%
Cc1cc(CO)c2cccc(Cc3cccc(C(=O)Nc4cc(C)on4)c3)c2n1,inhibition,"Thailand/16681/1984, Concentration 49.95 uM, Number of replicates 2.0, Standard deviation 1.544383261062021 %",29.6%
same,inhibition,"Thailand/16681/1984, Concentration 99.9 uM, Number of replicates 2.0, Standard deviation 16.942938692438737 %",63.9%
Cc1ccc2ccccc2c1NC(=O)C1CCN(c2ccc(C=O)cc2)CC1,inhibition,[1],17.5%
O=Cc1ccc(N2CCC(C(=O)N(CC3CC3)C3CCCCC3)CC2)cc1,inhibition,[1],14.1%
CN(Cc1c(Cl)cccc1Cl)C(=O)C1CCN(c2ccc(C=O)cc2)CC1,inhibition,[1],16%
O=Cc1ccc(N2CCC(C(=O)NCCc3ccc(C(F)(F)F)cc3)CC2)cc1,inhibition,[1],14.7%
Nc1ccc(Cl)c2ncccc12,inhibition,"Thailand/16681/1984, Concentration 49.95 uM, Number of replicates 2.0, Standard deviation 5.573210625462024 %",-2.71%
same,inhibition,"Thailand/16681/1984, Concentration 99.9 uM, Number of replicates 2.0, Standard deviation 5.772283256502015 %",2.67%
Cc1cc(CO)c2cccc(CC(=O)NCc3ccc(C(N)=O)cc3)c2n1,inhibition,"Thailand/16681/1984, Concentration 49.95 uM, Number of replicates 2.0, Standard deviation 0.824600056542549 %",-4.43%
same,inhibition,"Thailand/16681/1984, Concentration 99.9 uM, Number of replicates 2.0, Standard deviation 0.5940444883081935 %",2.19%
Cc1cc(N)cc(CNC(=O)c2cccc(Cc3cccc4c(CO)cc(C)nc34)c2)c1,inhibition,"Thailand/16681/1984, Concentration 49.95 uM, Number of replicates 2.0, Standard deviation 0.2659014326821377 %",29.9%
same,inhibition,"Thailand/16681/1984, Concentration 99.9 uM, Number of replicates 2.0, Standard deviation 1.3431613936290656 %",54.9%
CCC(=O)Nc1ccc(S(=O)(=O)Nc2ccc(Cl)cc2C(=O)NC)cc1,inhibition,"Thailand/16681/1984, Concentration 49.5 uM, Number of replicates 2.0, Standard deviation 0.19261632390400107 %",-3.39%
same,inhibition,"Thailand/16681/1984, Concentration 99.01 uM, Number of replicates 2.0, Standard deviation 0.9168343884111835 %",-1.85%
same,inhibition,"Thailand/16681/1984, Concentration 198.0 uM, Number of replicates 2.0, Standard deviation 0.6069319935951727 %",0.272%
Cc1cc(CO)c2cccc(NC(=O)c3ccc(N)nn3)c2n1,inhibition,"Thailand/16681/1984, Concentration 49.95 uM, Number of replicates 2.0, Standard deviation 1.176901179972867 %",11%
same,inhibition,"Thailand/16681/1984, Concentration 99.9 uM, Number of replicates 2.0, Standard deviation 1.886285239678155 %",19.5%
COc1cc(F)ccc1CNC(=O)C1CCN(c2ccc(C=O)cc2)CC1,inhibition,[1],5.8%
Cc1c(C(=O)N[C@@H](c2c[nH]nn2)C(C)C)ccc(O)c1NC(=O)c1ccncc1F,inhibition,"Thailand/16681/1984, Concentration 49.5 uM, Number of replicates 2.0, Standard deviation 0.10939610711378549 %",-2%
same,inhibition,"Thailand/16681/1984, Concentration 99.01 uM, Number of replicates 2.0, Standard deviation 1.03735768500033 %",-1.36%
same,inhibition,"Thailand/16681/1984, Concentration 198.0 uM, Number of replicates 2.0, Standard deviation 1.46514535247363 %",0.539%
CNC(=O)c1cc(Cl)ccc1NS(=O)(=O)Cc1cccc(C#N)c1,inhibition,"Thailand/16681/1984, Concentration 49.5 uM, Number of replicates 2.0, Standard deviation 0.29988051697956003 %",-0.543%
same,inhibition,"Thailand/16681/1984, Concentration 99.01 uM, Number of replicates 2.0, Standard deviation 0.3065657447232367 %",0.566%
same,inhibition,"Thailand/16681/1984, Concentration 198.0 uM, Number of replicates 2.0, Standard deviation 0.6274569925210838 %",1.62%
N[C@H]1C[C@H](CNC(=O)[C@@H](NC(=O)OCc2ccccc2)c2ccc(OCc3ccccc3)cc2)C1,inhibition,"Thailand/16681/1984, Concentration 49.5 uM, Number of replicates 2.0, Standard deviation 4.035148717327061 %",-7.81%
same,inhibition,"Thailand/16681/1984, Concentration 99.01 uM, Number of replicates 2.0, Standard deviation 3.6381547385610027 %",-5.23%
same,inhibition,"Thailand/16681/1984, Concentration 198.0 uM, Number of replicates 2.0, Standard deviation 2.7035240962471856 %",9.08%
Cc1ccc(C)n1CCN1CCN(C(=O)C2CCN(c3ccc(C=O)cc3)CC2)CC1,inhibition,[1],3.33%
CN(Cc1ccc(N2CCOCC2)cc1)C(=O)C1CCN(c2ccc(C=O)cc2)CC1,inhibition,[1],13.2%
CCS(=O)(=O)CCN(C)C(=O)C1CCN(c2ccc(C=O)cc2)CC1,inhibition,[1],14.2%
Cc1nn(Cc2ccc3[nH]cnc3c2)cc1C1CCNCC1,inhibition,"Thailand/16681/1984, Concentration 49.5 uM, Number of replicates 2.0, Standard deviation 2.2677819065404545 %",-0.121%
same,inhibition,"Thailand/16681/1984, Concentration 99.01 uM, Number of replicates 2.0, Standard deviation 1.8619846733790775 %",1.01%
same,inhibition,"Thailand/16681/1984, Concentration 198.0 uM, Number of replicates 2.0, Standard deviation 1.6361949864806369 %",1.87%
Cc1ccc(CNC(=O)C2CCN(C(=O)C3CCN(c4ccc(C=O)cc4)CC3)CC2)cc1,inhibition,[1],13.7%
Cc1cc(CO)c2cccc(Cc3cccc(NC(=O)c4cc(C(=O)O)[nH]n4)c3)c2n1,inhibition,"Thailand/16681/1984, Concentration 49.95 uM, Number of replicates 2.0, Standard deviation 0.024232414845035546 %",4.13%
same,inhibition,"Thailand/16681/1984, Concentration 99.9 uM, Number of replicates 2.0, Standard deviation 0.7422093740247248 %",7.91%
O=Cc1ccc(N2CCC(C(=O)N3CCN(c4ncccn4)CC3)CC2)cc1,inhibition,[1],13.4%
CNC(=O)c1cc(Cl)ccc1NS(=O)(=O)c1ccc2[nH]cnc2c1,inhibition,"Thailand/16681/1984, Concentration 49.5 uM, Number of replicates 2.0, Standard deviation 1.319101949450319 %",-7.17%
same,inhibition,"Thailand/16681/1984, Concentration 99.01 uM, Number of replicates 2.0, Standard deviation 1.2211230021296493 %",-9.33%
O=C(c1nc2ccccc2[nH]1)N1CC[C@H](n2cc3ccccc3n2)C1,inhibition,"Thailand/16681/1984, Concentration 49.5 uM, Number of replicates 2.0, Standard deviation 1.0025848069580536 %",1.32%
same,inhibition,"Thailand/16681/1984, Concentration 99.01 uM, Number of replicates 2.0, Standard deviation 0.026013034900923795 %",2.88%
same,inhibition,"Thailand/16681/1984, Concentration 198.0 uM, Number of replicates 2.0, Standard deviation 0.26283988560630633 %",8.61%
